Reference: patent publication US20220306753A1 (JN BIOSCIENCES, published 2022)

T1: CD80-FLAG-GPI (human)
T1 construct: also called CHO-K1/CD80 cells
T1 chain: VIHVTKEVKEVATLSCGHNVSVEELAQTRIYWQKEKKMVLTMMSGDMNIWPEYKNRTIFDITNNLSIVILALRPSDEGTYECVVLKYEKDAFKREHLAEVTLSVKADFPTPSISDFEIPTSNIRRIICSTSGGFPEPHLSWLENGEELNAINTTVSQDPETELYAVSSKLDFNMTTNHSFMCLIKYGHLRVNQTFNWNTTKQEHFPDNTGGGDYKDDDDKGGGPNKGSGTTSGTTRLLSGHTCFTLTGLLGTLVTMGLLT

T2: CD86-FLAG-GPI (human)
T2 construct: also called CHO-K1/CD86 cells
T2 chain: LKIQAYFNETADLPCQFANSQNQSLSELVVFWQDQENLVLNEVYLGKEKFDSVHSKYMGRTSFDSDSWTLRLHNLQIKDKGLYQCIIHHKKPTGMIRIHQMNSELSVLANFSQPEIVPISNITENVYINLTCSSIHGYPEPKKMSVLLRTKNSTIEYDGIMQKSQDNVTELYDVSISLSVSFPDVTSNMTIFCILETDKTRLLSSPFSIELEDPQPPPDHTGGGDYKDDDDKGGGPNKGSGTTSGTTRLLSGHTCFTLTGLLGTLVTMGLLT


How the values were obtained:
CD80-FLAG-GPI [1] = target: T1, CD80-FLAG-GPI; assay: flow cytometry on CHO-K1/CD80 cells, binder at 625 ng/ml, PE anti-human IgG
Description: (§1) CHO-K1 stable transfectants expressing CD80-FLAG-GPI (CHO-K1/CD80) and CD86-FLAG-GPI (CHO-K1/CD86) were generated by electroporation with pFCm553 and pFCm554, respectively, as described above. Binding of HuABC2-CH3-CTLA4YE, HuABC2-Ck-CTLA4YE, HuABC2-CTLA4YE-VH and HuABC2-CTLA4YE-Vk to CHO-K1/CD80 and CHO-K1/CD86 cells was analyzed by flow cytometry. Belatacept (also known as LEA29Y and Nulojix; SEQ ID NO:49), which is a CTLA4-Ig fusion protein carrying a substitution of an alanine residue to a tyrosine residue at position 29 (A29Y) and another substitution of a leucine residue to a glutamate residue at position 104 (L104E) of SEQ ID NO:10 (Larsen et al., Am. J. Transplant. 5:443-453, 2005; Oshima et al., Protein Eng. Des. Sel. 29:159-167, 2016), was purchased from Creative Biomart (Cat. No. THP-0109, Shirley, N.Y.) and used as a reference in the experiments.
(§2) Purified test samples (HuABC2-CH3-CTLA4YE, HuABC2-Ck-CTLA4YE, HuABC2-CTLA4YE-VH, and HuABC2-CTLA4YE-Vk) and belatacept, starting at 10 μg/mland five steps of 4-fold serial dilutions, were incubated with CHO-K1/CD80 or CHO-K1/CD86 cells in FACS Buffer (PBS containing 0.5% BSA and 0.05% sodium azide) for 30 min at 4° C. After washing with FACS Buffer, cells were incubated with PE-labeled goat anti-human IgG antibody (SouthernBiotech, Birmingham, Ala.) in FACS Buffer for 20 min at 4° C. After washing and suspension in FACS Buffer, stained cells were subjected to flow cytometry.
(§3) The binding patterns of HuABC2-CH3-CTLA4YE, HuABC2-Ck-CTLA4YE, HuABC2-CTLA4YE-VH, HuABC2-CTLA4YE-Vk and belatacept to CHO-K1/CD80 cells are shown in FIG. 9A. While the binding of each of HuABC2-CTLA4YE-VH and HuABC2-CTLA4YE-Vk to CD80 was only slightly weaker than the binding of belatacept, the binding of HuABC2-CH3-CTLA4YE and HuABC2-Ck-CTLA4YE was a lot weaker than that of belatacept.

CD86-FLAG-GPI [2] = target: T2, CD86-FLAG-GPI; assay: flow cytometry on CHO-K1/CD86 cells, binder at 625 ng/ml, PE anti-human IgG
Description: as §1, §2
as §3, with “CHO-K1/CD86” for “CHO-K1/CD80”, “9B. Like the case with CHO-K1/CD80 cells, while” for “9A. While”, “CD86” for “CD80”, “the binding” for “that”

CD80-FLAG-GPI [3] = target: T1, CD80-FLAG-GPI; assay: flow cytometry on CHO-K1/CD80 cells, binder at 200 ng/ml
Description: as §2
(§4) The two expression vectors (pHC642 and pHC630) were individually transfected into HEK293 cells as described above. Their expression level in culture supernatants was measured by sandwich ELISA as described above. Binding of transiently expressed HuABC101-CTLA4YE-VH and HuABC101-CH3-CTLA4YE to CD80 and CD86 was analyzed by flow cytometry as described above. Belatacept was used as a reference for binding to CD80 and CD86.
(§5) Binding of HuABC101-CH3-CTLA4YE to each of CD80 and CD86 was much weaker than the binding of HuABC101-CTLA4YE-VH.

CD86-FLAG-GPI [4] = target: T2, CD86-FLAG-GPI; assay: flow cytometry on CHO-K1/CD86 cells, binder at 200 ng/ml
Description: as §2, §4, §5

CD80-FLAG-GPI [5] = target: T1, CD80-FLAG-GPI; assay: flow cytometry on CHO-K1/CD80 cells, binder at 500 ng/ml
Description: as §2
(§6) The two expression vectors (pHC644 and pHC645) were individually transfected into HEK293 cells as described above. Their expression level in culture supernatants was measured by sandwich ELISA as described above. Binding of HuABC77D-CH3-CTLA4YE and HuABC77D-CTLA4YE-VH to CHO-K1/CD80 and CHO-K1/CD86 cells was analyzed by flow cytometry as described above. Belatacept was used as a reference for binding to CD80 and CD86. The test samples were used at 500 ng/ml and four steps of 3-fold serial dilutions.
(§7) The results of binding to CHO-K1/CD80 and CHO-K1/CD86 cells are shown in FIGS. 13A and B, respectively.

CD86-FLAG-GPI [6] = target: T2, CD86-FLAG-GPI; assay: flow cytometry on CHO-K1/CD86 cells, binder at 500 ng/ml
Description: as §2, §6, §7

Row | mean channel fluorescence (MCF) (CD80-FLAG-GPI [1]) | mean channel fluorescence (MCF) (CD86-FLAG-GPI [2]) | mean channel fluorescence (MCF) (CD80-FLAG-GPI [3]) | mean channel fluorescence (MCF) (CD86-FLAG-GPI [4]) | Binder | other results
1 |  |  | 1160 | 745 | HuABC101-CTLA4YE-VH (other, encoded by pHC642; transient HEK293 supernatant) heavy: MHVAQPAVVLASSRGIASFVCEYASPGKYTEVRVTVLRQADSQVTEVCAATYMMGNELTFLDDSICTGTSSGNQVNLTIQGLRAMDTGLYICKVELMYPPPYYEGIGNGTQIYVIDPEPCPDSDSGGGGSGGGGSQVQLQESGPGLVKPSQTLSLTCTVSGYSITNDNHWWNWIRQHPGKGLEWMGYIDSSGSSDNNPSLKSQITISRDTSKNQLSLKLSSVTAADTAVYYCARGGGRDYYGMDYWGQGTTVTVSS[gap - human IgG1 constant region] light: DIVMTQSPDSLGVSLGERATINCRASQSVSTSSYSYVHWYQQKPGQPPKLLIKYASNLESGVPDRFSGSGSGTDFTLTISSLQAEDVAVYYCQHSWDIPFTFGQGTKLEIKRTVAAPSVFIFPPSDEQLKSGTASVVCLLNNFYPREAKVQWKVDNALQSGNSQESVTEQDSKDSTYSLSSTLTLSKADYEKHKVYACEVTHQGLSSPVTKSFNRGEC | 
2 |  |  | 291 | 108 | HuABC101-CH3-CTLA4YE (other, encoded by pHC630; transient HEK293 supernatant) heavy: QVQLQESGPGLVKPSQTLSLTCTVSGYSITNDNHWWNWIRQHPGKGLEWMGYIDSSGSSDNNPSLKSQITISRDTSKNQLSLKLSSVTAADTAVYYCARGGGRDYYGMDYWGQGTTVTVSS[gap - human IgG1 constant region]GGGGSGMHVAQPAVVLASSRGIASFVCEYASPGKYTEVRVTVLRQADSQVTEVCAATYMMGNELTFLDDSICTGTSSGNQVNLTIQGLRAMDTGLYICKVELMYPPPYYEGIGNGTQIYVIDPEPCPDSD light: DIVMTQSPDSLGVSLGERATINCRASQSVSTSSYSYVHWYQQKPGQPPKLLIKYASNLESGVPDRFSGSGSGTDFTLTISSLQAEDVAVYYCQHSWDIPFTFGQGTKLEIKRTVAAPSVFIFPPSDEQLKSGTASVVCLLNNFYPREAKVQWKVDNALQSGNSQESVTEQDSKDSTYSLSSTLTLSKADYEKHKVYACEVTHQGLSSPVTKSFNRGEC | 

The next lines start with the binder.

Row | Binder | mean channel fluorescence (MCF) (CD80-FLAG-GPI [1]) | mean channel fluorescence (MCF) (CD86-FLAG-GPI [2]) | mean channel fluorescence (MCF) (CD80-FLAG-GPI [3]) | mean channel fluorescence (MCF) (CD86-FLAG-GPI [4]) | other results
3 | HuABC2-CTLA4YE-VH (other, encoded by pHC640) heavy: MHVAQPAVVLASSRGIASFVCEYASPGKYTEVRVTVLRQADSQVTEVCAATYMMGNELTFLDDSICTGTSSGNQVNLTIQGLRAMDTGLYICKVELMYPPPYYEGIGNGTQIYVIDPEPCPDSDSGGGGSGGGGSEVQLVESGGGLVQPGGSLRLSCAASGFTFSDFYMEWVRQAPGKGLEWIAASRNKANDYTTEYSASVKGRFIVSRDDSKNSLYLQMNSLKTEDTAVYYCARSYYRYDGMDYWGQGTTVTVSS[gap - human IgG1 constant region with changes] light: EIVLTQSPATLSLSPGERATLSCSAISSVSYMYWYQQKPGQAPRLLIYDTSNLVSGVPARFSGSGSGTDYTLTISSLEPEDFAVYYCQQWNTYPYTFGGGTKVEIKRTVAAPSVFIFPPSDEQLKSGTASVVCLLNNFYPREAKVQWKVDNALQSGNSQESVTEQDSKDSTYSLSSTLTLSKADYEKHKVYACEVTHQGLSSPVTKSFNRGEC | 1310 | 1290 |  |  | 
4 | HuABC2-Ck-CTLA4YE (other, heavy chain with L234A/L235A; encoded by pHC623) heavy: EVQLVESGGGLVQPGGSLRLSCAASGFTFSDFYMEWVRQAPGKGLEWIAASRNKANDYTTEYSASVKGRFIVSRDDSKNSLYLQMNSLKTEDTAVYYCARSYYRYDGMDYWGQGTTVTVSS[gap - human IgG1 constant region with changes] light: EIVLTQSPATLSLSPGERATLSCSAISSVSYMYWYQQKPGQAPRLLIYDTSNLVSGVPARFSGSGSGTDYTLTISSLEPEDFAVYYCQQWNTYPYTFGGGTKVEIKRTVAAPSVFIFPPSDEQLKSGTASVVCLLNNFYPREAKVQWKVDNALQSGNSQESVTEQDSKDSTYSLSSTLTLSKADYEKHKVYACEVTHQGLSSPVTKSFNRGECSGGGGSGMHVAQPAVVLASSRGIASFVCEYASPGKYTEVRVTVLRQADSQVTEVCAATYMMGNELTFLDDSICTGTSSGNQVNLTIQGLRAMDTGLYICKVELMYPPPYYEGIGNGTQIYVIDPEPCPDSD | 307 | 13 |  |  | 
5 | HuABC2-CTLA4YE-Vk (other, heavy chain with L234A/L235A; encoded by pHC641; also called HuABC2-CTLA4-Vk) heavy: EVQLVESGGGLVQPGGSLRLSCAASGFTFSDFYMEWVRQAPGKGLEWIAASRNKANDYTTEYSASVKGRFIVSRDDSKNSLYLQMNSLKTEDTAVYYCARSYYRYDGMDYWGQGTTVTVSS[gap - human IgG1 constant region with changes] light: MHVAQPAVVLASSRGIASFVCEYASPGKYTEVRVTVLRQADSQVTEVCAATYMMGNELTFLDDSICTGTSSGNQVNLTIQGLRAMDTGLYICKVELMYPPPYYEGIGNGTQIYVIDPEPCPDSDSGGGGSGGGGSEIVLTQSPATLSLSPGERATLSCSAISSVSYMYWYQQKPGQAPRLLIYDTSNLVSGVPARFSGSGSGTDYTLTISSLEPEDFAVYYCQQWNTYPYTFGGGTKVEIKRTVAAPSVFIFPPSDEQLKSGTASVVCLLNNFYPREAKVQWKVDNALQSGNSQESVTEQDSKDSTYSLSSTLTLSKADYEKHKVYACEVTHQGLSSPVTKSFNRGEC | 1310 | 956 |  |  | 
6 | HuABC77D-CTLA4YE-VH (other, encoded by pHC644; transient HEK293 supernatant) heavy: MHVAQPAVVLASSRGIASFVCEYASPGKYTEVRVTVLRQADSQVTEVCAATYMMGNELTFLDDSICTGTSSGNQVNLTIQGLRAMDTGLYICKVELMYPPPYYEGIGNGTQIYVIDPEPCPDSDSGGGGSGGGGSEVQLVESGGGLVQPGGSLRLSCAASGFDFSRYWMSWVRQAPGKGLEWIGEINPDSSTINYAPSLKDRFTISRDNAKNSLYLQMNSLRAEDTAVYYCARHDYDEGIYFDYWGQGTTVTVSS[gap - human IgG1 constant region with changes] light: DIQMTQSPSSLSASVGDRVTITCSASSRVIYMHWYQQKPGKAPKRWIYDTSKLASGVPSRFSGSGSGTEFTLTISSLQPEDFATYYCQQWSSNPPTFGGGTKVEIKRTVAAPSVFIFPPSDEQLKSGTASVVCLLNNFYPREAKVQWKVDNALQSGNSQESVTEQDSKDSTYSLSSTLTLSKADYEKHKVYACEVTHQGLSSPVTKSFNRGEC |  |  |  |  | mean channel fluorescence (MCF) (CD80-FLAG-GPI [5]): 4590; mean channel fluorescence (MCF) (CD86-FLAG-GPI [6]): 794
